Data on 57 compounds can be found in the supplement of paper PMC9135407.

This assay deals with primary human hepatic stellate cells (donor 1). The assay can be described thus: scaled lipid accumulation score (0 = DMSO-like, 1 = nortriptyline-like); higher = stronger HSC inactivation (lipid re-accumulation), active = hit call of the paper. As to conditions: 48 h.
Where [1] appears, read: library stock concentration: 1 mM.
Setting [2] is: library stock concentration: 3.33 mM.
[3] abbreviates: library stock concentration: 10 mM.
Where [4] appears, read: library stock concentration: 4.9 mM.
The mark [5] stands for this setting: library stock concentration: 80 uM.
The mark [6] stands for this setting: library stock concentration: 400 uM.
The mark [7] stands for this setting: library stock concentration: 2 mM.

Where “and” joins values, the source holds several entries; their conditions need not be identical. Identical values can stand only once. Counter-ions that a name gives are not always drawn. Out of some 5,800 compounds screened, about 620 (11%) showed activity.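 How the source made its calls: active = score above a cut-off or among the top three wells of a plate; in these data no inactive exceeds 0.85.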 Only a part is listed here, and it is no random draw.

On to `CCCCC[C@H](O)/C=C/[C@H]1[C@H](O)CC(=O)[C@H]1C/C=C\CCCC(=O)OC(C)C` [8-iso Prostaglandin E2 isopropyl ester], for which the “scaled lipid accumulation score” value under setting [1] is inactive: ≤ 0.
As for `Oc1ccc([C@H]2COc3cc(O)ccc3C2)cc1` [(?)-Equol], the “scaled lipid accumulation score” value under setting [1] was inactive: ≤ 0.
For the compound `Oc1ccc([C@H]2COc3cc(O)ccc3C2)cc1` [Equol], the “scaled lipid accumulation score” value by setting is: under setting [2], inactive: 0.004; under setting [3], inactive: 0.016.
With `Fc1ccc(C(c2ccc(F)cc2)N2CCN(C/C=C/c3ccccc3)CC2)cc1` [Flunarizine 2HCl], the “scaled lipid accumulation score” value was inactive: 0.164 under setting [2] and inactive: 0.348 under setting [3].
For `Fc1ccc(C(c2ccc(F)cc2)N2CCN(C/C=C/c3ccccc3)CC2)cc1` [Flunarizine hydrochloride], the “scaled lipid accumulation score” value under setting [3] was inactive: 0.082.
As to `Fc1ccc(C(c2ccc(F)cc2)N2CCN(C/C=C/c3ccccc3)CC2)cc1` [Flunarizine-2HCl], under setting [4], the “scaled lipid accumulation score” value is inactive: 0.188.
Turning to `Fc1ccc(C(c2ccc(F)cc2)N2CCN(C/C=C/c3ccccc3)CC2)cc1` [Flunarizine dihydrochloride], the “scaled lipid accumulation score” value was inactive: ≤ 0. Under setting [3], the “scaled lipid accumulation score” value was inactive: 0.534 and inactive: 0.325.
`CN1CCc2c(c3ccccc3n2Cc2ccccc2)C1` [Mebhydrolin naphthalenesulfonate]: the “scaled lipid accumulation score” value under setting [3] was inactive: ≤ 0.
The same measure, in the same setting: next, `COc1cc2ncnc(Nc3ccc(F)c(Cl)c3)c2cc1OCCCN1CCOCC1` [Iressa]: active: 0.9; `Cc1ccc(Nc2c(F)cccc2Cl)c(CC(=O)O)c1`: inactive: ≤ 0.
Regarding `Cc1ccc(Nc2c(F)cccc2Cl)c(CC(=O)O)c1` [Lumiracoxib], the “scaled lipid accumulation score” value was inactive: ≤ 0 under setting [2] and inactive: 0.025 under setting [3].
As to `CC(=O)Nc1cc2ccccc2oc1=O` [3-Acetamidocoumarin], the “scaled lipid accumulation score” value was inactive: ≤ 0.
For `O=[N+]([O-])c1ccccc1S(=O)(=O)NCC1CCC(CNCC2CCc3ccccc3C2)CC1` (centres undefined) [NTNCB hydrochloride], the “scaled lipid accumulation score” value under setting [3] was inactive: 0.622.
As for `CCCCC(=O)O[C@H]1CC[C@H]2[C@@H]3CCc4cc(O)ccc4[C@H]3CC[C@]12C` [Estradiol valerate], the “scaled lipid accumulation score” value is, setting by setting: under setting [2], inactive: ≤ 0; under setting [3], inactive: 0.4 and inactive: ≤ 0.
Take `CCCCC(=O)O[C@H]1CC[C@H]2[C@@H]3CCc4cc(O)ccc4[C@H]3CC[C@]12C`: the “scaled lipid accumulation score” value under setting [3] is inactive: 0.253.
With `Cc1nc2ccc(-n3ncc(C(=O)c4cc5ccccc5[nH]4)c3N)cc2[nH]1`, the “scaled lipid accumulation score” value runs as follows: under setting [5], inactive: 0.004; under setting [6], inactive: ≤ -0.001; under setting [7], inactive: ≤ 0.
For `COc1cc2c(Nc3ccc(Br)cc3F)ncnc2cc1OCC1CCN(C)CC1` [Vandetanib], the “scaled lipid accumulation score” value runs as follows: under setting [7], active: 1.27; under setting [3], active: 1.66.
For `N#Cc1c(O)c2c(-c3ccc(-c4ccccc4O)cc3)csc2[nH]c1=O`, the “scaled lipid accumulation score” value under setting [2] is inactive: 0.004; the “scaled lipid accumulation score” value under setting [3] was inactive: ≤ 0 and inactive: 0.001.
Regarding `N=C(N)c1ccc(OCCCCCOc2ccc(C(=N)N)cc2)cc1` [Pentamidine isethionate], the “scaled lipid accumulation score” value is inactive: ≤ 0. Also, under setting [3], the “scaled lipid accumulation score” value was inactive: 0.802 and inactive: ≤ 0.
In the case of `N=C(N)c1ccc(OCCCCCOc2ccc(C(=N)N)cc2)cc1` [Pentamidine], the “scaled lipid accumulation score” value under setting [2] was inactive: ≤ 0, the “scaled lipid accumulation score” value (library stock concentration: 5.9 mM) was inactive: ≤ -0.006 and the “scaled lipid accumulation score” value under setting [3] was inactive: 0.195.
For the compound `O=C(OC[C@H]1O[C@@H](OC(=O)c2cc(O)c(O)c(OC(=O)c3cc(O)c(O)c(O)c3)c2)[C@H](OC(=O)c2cc(O)c(O)c(OC(=O)c3cc(O)c(O)c(O)c3)c2)[C@@H](OC(=O)c2cc(O)c(O)c(OC(=O)c3cc(O)c(O)c(O)c3)c2)[C@@H]1OC(=O)c1cc(O)c(O)c(OC(=O)c2cc(O)c(O)c(O)c2)c1)c1cc(O)c(O)c(OC(=O)c2cc(O)c(O)c(O)c2)c1` [Tannic acid], the “scaled lipid accumulation score” value under setting [3] is inactive: ≤ -0.027.
In the case of `Cn1c(NCCN(CCO)CCCc2ccc([N+](=O)[O-])cc2)cc(=O)n(C)c1=O` [Nifekalant HCl], under setting [4], the “scaled lipid accumulation score” value is inactive: ≤ 0.
`Cn1c(NCCN(CCO)CCCc2ccc([N+](=O)[O-])cc2)cc(=O)n(C)c1=O`: the “scaled lipid accumulation score” value under setting [3] is inactive: ≤ 0.
Turning to `CCC(=O)c1ccc2c(c1)N(CCCN(C)C)c1ccccc1S2.Cl` [Propionylpromazine hydrochloride], under setting [3], the “scaled lipid accumulation score” value is active: 0.862.
Turning to `Cc1[nH]c2ccccc2c1CCNC(=O)c1cccs1`, the “scaled lipid accumulation score” value is inactive: ≤ -0.009 under setting [2] and inactive: ≤ 0 under setting [3].
On to `COc1ccc(OC)c2c(=S)c3ccccc3[nH]c12`, for which the “scaled lipid accumulation score” value under setting [3] is inactive: 0.004.
Regarding `Cc1sc(N)c(C(=O)c2cccc(C(F)(F)F)c2)c1C`, the “scaled lipid accumulation score” value under setting [3] was inactive: ≤ 0 and inactive: ≤ -0.006.
Regarding `CO/N=C(\C(=O)N[C@@H]1C(=O)N2C(C(=O)OCOC(=O)C(C)(C)C)=C(/C=C\c3scnc3C)CS[C@H]12)c1csc(N)n1` [Cefditoren Pivoxil], the “scaled lipid accumulation score” value is inactive: ≤ 0 under setting [2] and inactive: ≤ 0 under setting [3].
For the compound `CO/N=C(\C(=O)N[C@@H]1C(=O)N2C(C(=O)OCOC(=O)C(C)(C)C)=C(/C=C\c3scnc3C)CS[C@H]12)c1csc(N)n1` [Cefditorin pivoxil], the “scaled lipid accumulation score” value under setting [3] is inactive: ≤ -0.027.
Consider `CCC(=O)N1CCN(c2ccc(-n3c(=O)ccc4cnc5ccc(-c6cnc7ccccc7c6)cc5c43)cc2C(F)(F)F)CC1` [Torin1], for which the “scaled lipid accumulation score” value is, setting by setting: under setting [5], inactive: ≤ 0; under setting [6], inactive: ≤ 0; under setting [7], inactive: ≤ 0; under setting [3], inactive: 0.098.
With `CCCCCCCCCCCCCCCCC(=O)NCCO` [Heptadecanoyl Ethanolamide], the “scaled lipid accumulation score” value under setting [1] is inactive: ≤ 0.
In the case of `COc1ccc(-n2[nH]c3c4c(ncc3c2=O)CCCCC4)cc1`, the “scaled lipid accumulation score” value under setting [3] was inactive: ≤ -0.001.
On to `Cn1cnc(-c2cc3nccc(Oc4ccc(NC(=S)NC(=O)Cc5ccccc5)cc4F)c3s2)c1` [MGCD-265 analog], for which the “scaled lipid accumulation score” value under setting [5] is inactive: 0.048; the “scaled lipid accumulation score” value under setting [6] is inactive: ≤ -0.009; the “scaled lipid accumulation score” value under setting [7] was inactive: ≤ -0.009; the “scaled lipid accumulation score” value under setting [2] is inactive: ≤ 0; the “scaled lipid accumulation score” value under setting [3] was inactive: ≤ 0 and inactive: 0.22.
Turning to `Cc1ccc(-c2ccc3c(ccc4sc5c(c43)NC[C@@H](C)NC5=O)n2)cn1`, the “scaled lipid accumulation score” value is, setting by setting: under setting [5], inactive: ≤ -0.001; under setting [6], inactive: ≤ -0.001; under setting [7], inactive: 0.744.
For `COc1ccc(CCN(C)CCCC(C#N)(c2ccc(OC)c(OC)c2)C(C)C)cc1OC` (centres undefined) [Verapamyl hydrochloride], the “scaled lipid accumulation score” value is inactive: 0.545.
`COc1ccc(CCN(C)CCCC(C#N)(c2ccc(OC)c(OC)c2)C(C)C)cc1OC` (centres undefined) [Verapamil]: the “scaled lipid accumulation score” value (library stock concentration: 4.4 mM) is inactive: 0.416.
On to `COc1ccc(CCN(C)CCCC(C#N)(c2ccc(OC)c(OC)c2)C(C)C)cc1OC` (centres undefined) [Verapamil hydrochloride], for which the “scaled lipid accumulation score” value under setting [3] was inactive: 0.587.
Consider `COc1ccc(CCN(C)CCCC(C#N)(c2ccc(OC)c(OC)c2)C(C)C)cc1OC` (centres undefined) [Verapamil HCl], for which the “scaled lipid accumulation score” value by setting is: under setting [2], inactive: 0.332; under setting [3], inactive: 0.536.
Consider `Cc1onc(-c2ccccc2)c1-c1ccc(S(N)(=O)=O)cc1`, for which, under setting [3], the “scaled lipid accumulation score” value was inactive: ≤ 0.
Consider `Cc1onc(-c2ccccc2)c1-c1ccc(S(N)(=O)=O)cc1` [Valdecoxib], for which the “scaled lipid accumulation score” value runs as follows: under setting [2], inactive: ≤ 0; under setting [3], inactive: 0.226 and inactive: 0.088.
`CCCc1cc(=O)[nH]c(=S)[nH]1` [Propylthiouracil]: the “scaled lipid accumulation score” value was inactive: ≤ 0. Moreover, the “scaled lipid accumulation score” value under setting [2] was inactive: ≤ 0. The “scaled lipid accumulation score” value under setting [3] was inactive: ≤ 0 and inactive: 0.066.
For `C[N+]1(CCCCC[N+]2(C)CCCC2)CCCC1` [Pentolinium di[L(+)-tartrate]], the “scaled lipid accumulation score” value under setting [3] was inactive: 0.144.
With `C[N+]1(CCCCC[N+]2(C)CCCC2)CCCC1` [Pentolinium bitartrate], the “scaled lipid accumulation score” value is inactive: ≤ 0.
As for `C[N+]1(CCCCC[N+]2(C)CCCC2)CCCC1` [Pentolinium tartrate], under setting [3], the “scaled lipid accumulation score” value is inactive: 0.026.
Regarding `O=C(Nc1ccccc1)c1cc([N+](=O)[O-])ccc1Cl`, the “scaled lipid accumulation score” value is, setting by setting: under setting [1], inactive: ≤ 0; under setting [2], inactive: 0.023; under setting [3], inactive: ≤ 0 and inactive: 0.358 and inactive: 0.105.
As for `CC[C@]1(O)C[C@@H]2CN(CCc3c([nH]c4ccccc34)[C@@](C(=O)OC)(c3cc4c(cc3OC)N(C)[C@@H]3C45CCN4CC=C[C@](CC)([C@H]45)[C@H](OC(C)=O)[C@]3(O)C(=O)OC)C2)C1` (some centres undefined) [Vinblastine], the “scaled lipid accumulation score” value under setting [3] is active: 0.956.
In the case of `CCCCCCC[N+](CC)(CC)CCCCc1ccc(Cl)cc1` [Clofilium tosylate], the “scaled lipid accumulation score” value was inactive: ≤ 0.
In the case of `CCOC(=O)C1=C[C@@H](OC(CC)CC)[C@H](NC(C)=O)[C@@H](N)C1`, the “scaled lipid accumulation score” value under setting [3] is inactive: 0.074.
On to `CCOC(=O)C1=C[C@@H](OC(CC)CC)[C@H](NC(C)=O)[C@@H](N)C1` [Oseltamivir], for which, for the setting “library stock concentration: 6.4 mM”, the “scaled lipid accumulation score” value was inactive: ≤ 0.
For the compound `CCOC(=O)C1=C[C@@H](OC(CC)CC)[C@H](NC(C)=O)[C@@H](N)C1` [Oseltamivir tartrate], the “scaled lipid accumulation score” value under setting [3] was inactive: 0.11.
`C[C@]12CCC(=O)C=C1CC[C@@H]1[C@@H]2[C@@H](O)C[C@@]2(C)[C@H]1CC[C@]2(O)C(=O)CO` [Hydrocortisone base]: the “scaled lipid accumulation score” value was inactive: 0.178.
For the compound `C[C@]12CCC(=O)C=C1CC[C@@H]1[C@@H]2[C@@H](O)C[C@@]2(C)[C@H]1CC[C@]2(O)C(=O)CO`, the “scaled lipid accumulation score” value under setting [3] is inactive: 0.065.
For `C[C@]12CCC(=O)C=C1CC[C@@H]1[C@@H]2[C@@H](O)C[C@@]2(C)[C@H]1CC[C@]2(O)C(=O)CO` [Hydrocortisone], the “scaled lipid accumulation score” value under setting [2] is inactive: ≤ 0; the “scaled lipid accumulation score” value under setting [3] is inactive: 0.137 and inactive: 0.029 and inactive: ≤ 0.
`CC(=O)N(O)[C@@H]1c2cc(C#N)ccc2OC(C)(C)[C@H]1O`: under setting [3], the “scaled lipid accumulation score” value was inactive: ≤ 0.
As to `O=C(CCc1ccc(O)cc1)c1c(O)cc(O)cc1O[C@@H]1O[C@H](CO)[C@@H](O)[C@H](O)[C@H]1O` [Phlorizin], the “scaled lipid accumulation score” value runs as follows: under setting [2], inactive: ≤ 0; under setting [3], inactive: ≤ 0.
With `S=C(S)OC1CC2CC1C1CCCC21` [D-609 potassium], the “scaled lipid accumulation score” value under setting [3] is inactive: ≤ 0.
With `CN(N=O)C(=O)NC1C(O)OC(CO)C(O)C1O` (centres undefined) [Streptozotocin (STZ)], the “scaled lipid accumulation score” value by setting is: under setting [2], inactive: ≤ 0; under setting [3], inactive: ≤ 0.
